PubChem BioAssay AID686979 (National Center for Advancing Translational Sciences (NCATS), 2013)
Several values for one entry are separate records, joined by “and”; a condition that tells them apart may be missing. Identical values can stand only once. Out of some 420,000 compounds screened, about 50,000 (12%) were called active. This list was built around the results that the source calls inconclusive (neither active nor inactive); the mix of calls is not that of the screen. Calls come from the whole dose curve; as a rule, active = well fitted inhibition curve with a large enough effect; inconclusive = small, poorly fitted or top-dose-only effect; inactive = flat fitted curve, though single readings scatter. Where the call is inconclusive, the potency comes from a doubtful curve fit.

Experiment: qHTS for Inhibitors of human tyrosyl-DNA phosphodiesterase 1 (TDP1): qHTS in cells in presence of CPT; note: nearly all actives have a fitted effect of over 55% in size
Conditions: chicken DT40 Tdp1-/-;hTDP1 cells + 20 nM CPT, ATP luminescence, 48 h; activity change, negative = growth inhibition: at 46.2 µM (top of the series)
Method in brief: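 Cell growth measured by CellTiter-Glo luminescence after a minimum 48 h, 37 C compound exposure with 20 nM CPT in Tdp1-knockout DT40 cells stably expressing hTDP1, seeded 400/well; qHTS titration format.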
% is set by controls: 0 for no effect and ±100 for the full control effect; potency is the fitted concentration of half-maximal effect; tags give direction and shape of the fitted curve.

Row | Compound | activity change, negative = growth inhibition | Potency
1 | CCOC(=O)c1nn(C)c(=S)n(C)c1=O | inactive: 5.45% | –
2 | COc1ccc(C(c2nnnn2-c2ccc(OC)cc2)N2CCN(C/C=C/c3ccccc3)CC2)cc1 (centres undefined) | – | inconclusive: 29.1 µM [inhibitor, single point]
3 | COc1ccc(S(=O)(=O)N2CCN(C(C)C(=O)Nc3ccc(C(C)C)cc3)CC2)cc1 (centres undefined) | – | active: 29.1 µM
4 | CCCCCCCCN1C(=O)[C@H](CC(=O)NCCCCc2ccccc2)C[C@@]2(C(=O)OC)CCCCC=C12 | – | inconclusive: 23.1 µM [inhibitor, single point]
5 | COc1ccc(NC(=O)C2c3ccccc3OCC(=O)N2Cc2cccnc2)cc1 (centres undefined) | inactive: 6.07% | –
6 | COc1ccc(C(O)c2nc(-c3ccc4c(c3)OCO4)cs2)cc1 (centres undefined) | – | inconclusive: 16.4 µM [inhibitor, partial curve]
7 | Cc1c(Cl)cccc1N1C(N)=C(C#N)C(c2cc(CN3CCOCC3)cs2)C2=C1CCCC2=O (centres undefined) | – | inconclusive: 20.6 µM [inhibitor, single point]
8 | CCOC1=C/C(=C/c2c(N)n3nc(S(=O)(=O)CC)sc3nc2=O)C=CC1=O | inactive: -3.93% | –
9 | COc1ccc(NC(=O)CSc2nc(-c3cccs3)cc(C(F)(F)F)c2C#N)cc1 | inactive: -23% | –
10 | CC1Cc2ccccc2N1C(=O)CSc1nnc(-c2ccc(S(=O)(=O)N3CCCC3)cc2)o1 (centres undefined) | – | inconclusive: 18.4 µM [inhibitor, single point]
11 | Nc1nc(SCC(=O)Nc2cccc(Oc3ccccc3)c2)n[nH]1 | inactive: -13.3% | –
12 | Cc1nn(Cc2c(Cl)cccc2Cl)c(C)c1NC(=O)c1cc(C(C)C)on1 | – | active: 18.4 µM
13 | N#CCCN(C(=S)NC(=O)c1cccs1)c1ccccc1F | – | inconclusive: 7.31 µM [inhibitor, partial curve]
14 | O=c1c2sc3ccccc3c2n(Cc2cccc(C(F)(F)F)c2)c(=O)n1Cc1ccccc1 | – | inconclusive: 29.1 µM [inhibitor, single point]
15 | CCCCC1(Cc2ccc(OC)c([N+](=O)[O-])c2)C(=O)N(c2ccccc2)N(c2ccccc2)C1=O | – | inconclusive: 22.4 µM [inhibitor, single point]
16 | Cc1ccccc1OCC(=O)NCC(=O)OCC(=O)c1ccc([N+](=O)[O-])cc1 | – | active: 25.9 µM
17 | Cc1ccc(S(=O)(=O)N2C[C@H]3[C@H]4C(=O)N(c5ccccc5)C(=O)[C@H]4CC(=O)[C@H]3[C@@H]2c2cccc3ccccc23)cc1 | inactive: 1.24% | –
18 | O=C(Nc1cccc2c1CCCC2)c1ccccc1Cl | inactive: 7.08% | –
19 | COc1cccc(CC2(CO)CCCN(C/C=C/c3ccccc3OC)C2)c1 (centres undefined) | – | inconclusive: 29.1 µM [inhibitor, single point]
20 | Cc1nc2oc3c(NCc4ccccc4)ncnc3c2c2c1COC(C)(C)C2 | – | inconclusive: 29.1 µM [inhibitor, single point]
21 | O=C1N(Cc2cccc(C(F)(F)F)c2)c2ccccc2S(=O)(=O)N1c1cccc(Cl)c1 | – | inconclusive: 23.1 µM [inhibitor, single point]
22 | O=C(C(=O)N1CCCC1)c1c(-c2ccccc2)[nH]c2ccccc12 | inactive: -16.7% | –
23 | CCN(CC)C(=O)CSc1nc2cc3c(cc2c(=O)n1CCCCCC(=O)NCCc1ccc(OC)c(OC)c1)OCO3 | – | active: 14.6 µM

Row | Compound | activity change, negative = growth inhibition | Potency
24 | COc1ccc(CNc2ccnc(-c3cccc(C#N)c3)n2)c(OC)c1 | – | inconclusive: 29.1 µM [inhibitor, single point]
25 | CN(CC(=O)Nc1ccccc1Cl)C(=O)COC(=O)c1ccc([N+](=O)[O-])s1 | – | inconclusive: 0.82 µM [inhibitor, full curve, poor fit]
26 | Cc1cccc(C)c1-n1nnnc1C(c1ccnc2ccccc12)N1CCCC1 (centres undefined) | – | inconclusive: 29.1 µM [inhibitor, single point]
27 | N#Cc1c(C(F)(F)F)cc(-c2cccs2)nc1SCC(=O)Nc1ccc(F)cc1 | – | inconclusive: 13 µM [inhibitor, single point]
28 | CN(C)c1ccccc1C(=O)N1CCCC(C(=O)c2ccc3ccccc3c2)C1 (centres undefined) | – | inconclusive: 29.1 µM [inhibitor, single point]
29 | NS(=O)(=O)c1cccc(NC(=O)CSc2nc3ccccc3c(=O)n2CCCN2CCOCC2)c1 | inactive: 3.82% | –
30 | O=C(c1ccc(Cl)cc1)c1c[nH]c(C(=O)NNc2cccc(Cl)n2)c1 | inactive: -43.3% | –
31 | CCOC(=O)C1CCC(CNCc2ccc(Cl)cc2)CC1 (centres undefined) | – | inconclusive: 18.4 µM [inhibitor, single point]
32 | O=C(CSc1nc(C(F)(F)F)cc(=O)[nH]1)NCc1ccc2c(c1)OCO2 | inactive: 21.6% | –
33 | Cc1cc(F)ccc1NC(=O)CN(C)S(=O)(=O)c1ccc(C(=O)N2CCOCC2)s1 | – | inconclusive: 29.1 µM [inhibitor, single point]
34 | C[C@H](CO)N1C[C@H](C)[C@@H](CN(C)C(=O)Nc2ccc(C(F)(F)F)cc2)Oc2c(NS(=O)(=O)c3ccc(F)cc3)cccc2C1=O | – | inconclusive: 29.1 µM [inhibitor, single point]
35 | COCCNC(=O)CCc1c(C)nc2c(c(C)nn2-c2ccc(C)cc2)c1C | – | inconclusive: 29.1 µM [inhibitor, single point] and inconclusive: 25.9 µM [inhibitor, single point]
36 | CCCNC(=S)N1CCN(c2nc(-c3ccc(C)cc3)cs2)CC1 | – | inconclusive: 29.1 µM [inhibitor, single point]
37 | CCN(CC)Cc1c(O)ccc2c(=O)c(-c3ccc(Cl)cc3)coc12 | – | inconclusive: 10.3 µM [inhibitor, partial curve]
38 | C=C(C)CNC(=S)/N=c1\scc(C)n1CC | – | active: 18.4 µM
39 | CSc1ccc(Cl)c(C(=O)N2CCN(c3ncccn3)CC2)c1 | inactive: 0.855% | –
40 | COc1ccc(NC(=O)c2cc(-c3ccccc3O)n[nH]2)cc1Cl | inactive: -15.2% | –
41 | CC(=O)Nc1ccc(NC(=O)CSc2ccc(-c3ccc4c(c3)OCO4)nn2)cc1 | – | inconclusive: 29.1 µM [inhibitor, single point]
42 | Cc1c(NS(=O)(=O)c2ccc3c(c2)Cc2ccccc2-3)c(=O)n(-c2ccccc2)n1C | inactive: 6.31% | –
43 | COC(=O)c1cc(OC)c(OC)cc1NC(=O)CCc1ccc(C)o1 | – | inconclusive: 29.1 µM [inhibitor, single point]
44 | OC(CN1CCN(c2cccc(Cl)c2)CC1)c1ccccc1 (centres undefined) | inactive: -22.4% | –
45 | COc1cccc(C(C)(O)c2nc(-c3ccc(OC)c(OC)c3)cs2)c1 (centres undefined) | – | inconclusive: 16.4 µM [inhibitor, partial curve, poor fit]
46 | COc1cccc(-c2cc(C(=O)Nc3ccncc3)c3ccccc3n2)c1 | – | inconclusive: 25.9 µM [inhibitor, single point]

Row | Compound | activity change, negative = growth inhibition | Potency
47 | O=C(Nc1cccc(Cl)c1N1CCOCC1)c1ccc2c(c1)OCCO2 | – | inconclusive: 18.4 µM [inhibitor, single point]
48 | COc1cccc(-c2nc(CS(=O)(=O)CC(=O)Nc3cc(C)ccc3C)c(C)o2)c1 | – | inconclusive: 23.1 µM [inhibitor, partial curve, poor fit]
49 | CCCN(CCC)c1nc(-c2ccccc2F)nc2ccccc12 | inactive: -3.78% | –
50 | N#Cc1c(NC(=O)CSc2nnc(-c3ccccc3)o2)sc2c1CCCC2 | – | inconclusive: 16.4 µM [inhibitor, single point]
51 | CCC(C(=O)Nc1cc(OC)c(NC(=O)c2ccccc2)cc1OC)c1ccccc1 (centres undefined) | – | inconclusive: 25.9 µM [inhibitor, single point]
52 | COc1ccc(OCc2ccc(-c3nc(C#N)c(N4CCN(c5cccc(Cl)c5)CC4)o3)o2)cc1 | inactive: -7.09% | –
53 | O=C(NCCC(=O)N(Cc1ccco1)Cc1cccs1)c1ccccc1Cl | – | inconclusive: 20.6 µM [inhibitor, single point]
54 | CCN(CC)S(=O)(=O)c1cc(NC(=O)CNc2cccc(S(=O)(=O)N3CCOCC3)c2)ccc1C | – | active: 5.17 µM
55 | Cc1ccc2c(c1)N(C(=O)CCC(=O)NCCCN1CCOCC1)CCO2 | inactive: 6.71% | –
56 | Cc1cccc(N(C(=O)c2snc(C(N)=O)c2N)C(C(=O)NC2CCCC2)c2ccco2)c1 (centres undefined) | – | inconclusive: 25.9 µM [inhibitor, single point]
57 | CCc1ccccc1NC(=O)CSC1=Nc2ccccc2C2=NC(Cc3ccccc3)C(=O)N12 (centres undefined) | – | active: 16.4 µM
58 | CC(NC(=S)NCCN1CCOCC1)C12CC3CC(CC(C3)C1)C2 (centres undefined) | – | inconclusive: 20.6 µM [inhibitor, single point]
59 | Cc1ccc(Cn2c(=N)n(CC(O)COc3ccccc3)c3ccccc32)cc1 (centres undefined) | – | active: 18.4 µM
60 | O=C(CSc1nc2c([nH]c3ccccc32)c(=O)n1-c1ccc(F)cc1)NC1CCCCC1 | – | active: 14.6 µM
61 | CSc1nc2ccccc2n1Cc1cccc(F)c1 | – | inconclusive: 16.4 µM [inhibitor, partial curve]
62 | CCN(CCNCC(O)COCc1ccc(Cl)cc1)c1cccc(C)c1 (centres undefined) | – | inconclusive: 20.6 µM [inhibitor, single point]
63 | O=C(Nc1nnc(-c2ccco2)o1)c1ccc(S(=O)(=O)N2CCOCC2)cc1 | – | inconclusive: 29.1 µM [inhibitor, single point]
64 | S=C(NNC(=S)NC1CC2C=CC1C2)NC1CC2C=CC1C2 (centres undefined) | inactive: -3.95% | –
65 | NNc1nc2cc3c(cc2s1)OCCO3 | – | inconclusive: 20.6 µM [inhibitor, single point]
66 | CCC1=NN2C(=N)/C(=C/c3cc(C)n(Cc4ccccc4)c3C)C(=O)N=C2S1 | inactive: 0.876% | –
67 | COc1ccc2[nH]c(=O)c(CNc3ccccc3OC)cc2c1 | – | active: 6.51 µM
68 | C[C@H](CO)N1C[C@H](C)[C@@H](CN(C)CC2CCCCC2)Oc2ccc(NC(=O)CCN3CCOCC3)cc2C1=O | inactive: -27.2% | –
69 | CCOC(=O)c1c(NC(=O)CN2C(=O)N(C)C3(CCCCC3)C2=O)sc(C(=O)N(C)C)c1C | inactive: 4.69% | –
